Consider 172 sequences from publication PMC6212790.

This is one part of the list. At the low end of the ranking the order means little.

The assay deals with T1, GST-Rok-C97-191 (UniProt O34857).
T1 sequence: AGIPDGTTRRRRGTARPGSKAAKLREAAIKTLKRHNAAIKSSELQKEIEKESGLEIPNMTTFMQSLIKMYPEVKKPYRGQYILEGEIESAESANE
Put plainly: protein binding microarray.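 Note: rank score from −0.5 (least bound) to 0.5 (best bound).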 As to conditions: Rok is a gene silencer of Bacillus subtilis; high values mean tight binding; most listed sequences are background and not binding sites; double strand, one strand shown.
Take CCCGGCAC: the binding signal is -0.0752 E-score.
Next, CACTAACA: 0.114 E-score.
For CACGAGAA, the binding signal was -0.178 E-score.
Next, GACCGATC: -0.12 E-score.
Take AAGATGCT: the binding signal was -0.0226 E-score.
Consider TAACAAAA, for which the binding signal came out at 0.19 E-score.
Consider GATGATAC, for which the binding signal is -0.0732 E-score.
For CCAAGTCC, the binding signal is -0.133 E-score.
Next, ACTGACAG: 0.0188 E-score; CCGCCTCC: -0.322 E-score; CATGCCGG: -0.227 E-score.
Take CATAAACC: the binding signal was 0.138 E-score.
Regarding AGTTTTTG, the binding signal came out at 0.161 E-score.
Sequence ACCGAACT returned a binding signal of 0.0541 E-score.
Sequence CATCTATA returned a binding signal of 0.201 E-score.
AACAAGTC registered a binding signal of -0.0355 E-score.
Sequence GAGAGCCC had a binding signal of -0.356 E-score.
On to CACATAGC, for which the binding signal was found to be 0.0478 E-score.
As for AGATCGTG, the binding signal is -0.102 E-score.
The figure for CCAGACAG is -0.328 E-score; for GATGCAAC it is -0.12 E-score.
In turn, CGATATGA gave a binding signal of -0.0464 E-score.
For the sequence ACCAGTGC, the binding signal was -0.104 E-score.
For ATTCTTGA, the binding signal is 0.0728 E-score.
Take AAGGAAGG: the binding signal was -0.243 E-score.
In the case of CAACATAG, the binding signal came to 0.0825 E-score.
The figure for CACGTTAC is 0.168 E-score.
The sequence ACCTATCC yielded a binding signal of 0.0672 E-score.
For the sequence ATTCTATA, the binding signal came to 0.224 E-score.
Sequence ACGCCACA had a binding signal of -0.118 E-score.
Regarding CTGTACAC, the binding signal is -0.0793 E-score.
In the case of CTCTCGCC, the binding signal is -0.229 E-score.
For the sequence ATCCGAGA, the binding signal stood at 0.175 E-score.
Sequence GCCAGCCC had a binding signal of -0.233 E-score.
As to ACCGAAGG, the binding signal was -0.0855 E-score.
In turn, CCATCATA yielded a binding signal of 0.137 E-score.
The figure for AATTTAAC is 0.313 E-score.
The figure for AAATAGTC is 0.049 E-score; for CAAAACCG it is -0.162 E-score.
For ACTCGCCA, the binding signal was -0.101 E-score.
With GCCCGGTA, the binding signal was -0.225 E-score.
In the case of AAGATGTA, the binding signal amounted to 0.193 E-score.
Take GTAGGATA: the binding signal was found to be 0.122 E-score.
Sequence AGTGCTAC displayed a binding signal of 0.179 E-score.
Next, ATTCCCCC: -0.222 E-score.
The sequence TGTGCACA had a binding signal of 0.0256 E-score.
On to CCTTGTAA, for which the binding signal came out at 0.0551 E-score.
Consider TGACCCCA, for which the binding signal was -0.313 E-score.
On to CTACAGAG, for which the binding signal turned out to be 0.0148 E-score.
As for CTAGTGAG, the binding signal was 0.0621 E-score.
CAGGCATC: the binding signal is -0.0851 E-score.
On to ATGGGATA, for which the binding signal was 0.257 E-score.
ATCGAGGG showed a binding signal of 0.0393 E-score.
On to GAGATATA, for which the binding signal turned out to be 0.301 E-score.
Next, AGCCAACT: 0.0439 E-score; ACTCGTTA: 0.225 E-score; CAGACGAA: -0.0248 E-score.
The sequence GAACAACA yielded a binding signal of -0.209 E-score.
Next, GCCGGAGA: -0.0719 E-score.
As to CCGCAAAC, the binding signal was -0.209 E-score.
Next, GCATTTCA: 0.0946 E-score; CCGTAACC: 0.0227 E-score.
As for TGCTATAA, the binding signal stood at 0.312 E-score.
The sequence AAGCTGCT yielded a binding signal of -0.00165 E-score.
For ACCCTCTG, the binding signal is -0.172 E-score.
In turn, CAGGCTCC yielded a binding signal of -0.243 E-score.
For the sequence AACTTGAC, the binding signal was 0.11 E-score.
The sequence CGGGGATC showed a binding signal of -0.215 E-score.
As to GCAAAGAA, the binding signal worked out at 0.0898 E-score.
Turning to CACACCGA, the binding signal was 0.0716 E-score.
The figure for CGACGATC is -0.192 E-score; for AACCAGGG it is -0.181 E-score.
In turn, ATACGGGA had a binding signal of 0.0102 E-score.
In turn, CGAGTGTC had a binding signal of -0.0337 E-score.
For TAGACCCA, the binding signal was found to be 0.00211 E-score.
The sequence AGACAAGC returned a binding signal of -0.168 E-score.
The figure for AGTTCGGA is 0.173 E-score; for TCCAATCA it is -0.117 E-score.
On to AACGCCCC, for which the binding signal is -0.377 E-score.
The sequence AAGTGACG gave a binding signal of 0.155 E-score.
Next, AGACTAAG: 0.0462 E-score.
Next, AGGCGCCT: -0.263 E-score; AACTTTTG: 0.0934 E-score.
Sequence CCGCGTAG registered a binding signal of -0.103 E-score.
As for CAAGTTAG, the binding signal came out at 0.158 E-score.
On to AATACTGC, for which the binding signal came out at 0.171 E-score.
With CATGTTAG, the binding signal stood at 0.0269 E-score.
The figure for AAGTTTCG is 0.206 E-score.
For CCTTACAG, the binding signal amounted to 0.14 E-score.
For ACTGCCAG, the binding signal was -0.198 E-score.
ATGAGGCA had a binding signal of -0.213 E-score.
For AGGTACAA, the binding signal came to 0.0985 E-score.
Next, CATAACCA: 0.0637 E-score; ATTGGAAC: -0.0509 E-score.
The sequence GAACTATC gave a binding signal of 0.261 E-score.
Regarding GAGACCAC, the binding signal is -0.222 E-score.
Sequence ATGAACTA came in with a binding signal of 0.0301 E-score.
Regarding CTGTAGCC, the binding signal was -0.184 E-score.
Turning to ATCGAATA, the binding signal is 0.254 E-score.
The sequence CAAGATTG came in with a binding signal of -0.223 E-score.
The sequence CAGGCCTA returned a binding signal of -0.128 E-score.
As to CCGTGAGA, the binding signal was -0.0715 E-score.
Consider ATTAGACA, for which the binding signal was 0.11 E-score.
In the case of AGGCGTCC, the binding signal was -0.159 E-score.
As to GTATGGGA, the binding signal was -0.0116 E-score.
As to CAAACGGC, the binding signal is -0.0245 E-score.
In the case of TGGGGCAA, the binding signal is -0.15 E-score.
Next, CGCATGGA: -0.108 E-score.
On to AAAACTCC, for which the binding signal turned out to be 0.137 E-score.
Sequence AATCATAA registered a binding signal of 0.0596 E-score.
TACGTACA returned a binding signal of 0.29 E-score.
The figure for CAGTAGAA is 0.426 E-score; for CAATTGTA it is 0.251 E-score.
The figure for ACTCCCCA is -0.38 E-score; for AGGGGGTA it is -0.196 E-score; for ATGCAGTA it is 0.297 E-score.
As for CGCTACAA, the binding signal is 0.104 E-score.
Next, CCGTATCC: -0.127 E-score; CCGCAGGC: -0.204 E-score.
Regarding GACCAAAC, the binding signal is -0.18 E-score.
The figure for AGCCATCC is -0.0947 E-score; for AAAGTGCT it is -0.0434 E-score.
As for CCTCCAGG, the binding signal is -0.193 E-score.
Regarding ACTAATGC, the binding signal is 0.262 E-score.
In the case of GTCGAATA, the binding signal is 0.168 E-score.
ATGATTAA: the binding signal came to 0.00647 E-score.
In the case of AGTCTCAC, the binding signal was -0.119 E-score.
AATTTACC displayed a binding signal of 0.345 E-score.
In the case of AGTAGGAG, the binding signal came out at 0.094 E-score.
As to ACATATGC, the binding signal worked out at 0.153 E-score.
Next, AATAGTAA: 0.338 E-score; CCCTTACG: -0.155 E-score.
Next, CACACATC: -0.184 E-score.
Sequence GAACACTC had a binding signal of -0.0181 E-score.
Regarding CACCGACG, the binding signal is -0.171 E-score.
As for CCTGTTAG, the binding signal was -0.0254 E-score.
In turn, TAACTACA showed a binding signal of 0.423 E-score.
Next, AGGTATAC: 0.19 E-score.
CCAGGGGC: the binding signal was -0.361 E-score.
Next, GACAAAGA: -0.148 E-score; GCTTGTCC: -0.189 E-score; ACCAGTGG: -0.116 E-score.
Next, CGCTGCCG: -0.359 E-score; CGTTGTAG: 0.203 E-score.
ATGGCCTA displayed a binding signal of -0.00532 E-score.
In turn, CTATAGGC had a binding signal of -0.0221 E-score.
Take ATCAAGAC: the binding signal was -0.00216 E-score.
The figure for CAAGTCAC is -0.185 E-score; for ATAATCAA it is 0.149 E-score; for ACTCTTCA it is 0.0616 E-score.
GGAGGGAA: the binding signal was -0.24 E-score.
Consider AAAAGCCT, for which the binding signal was -0.25 E-score.
Next, AAGGAGGT: -0.151 E-score; TGCCGAAA: -0.0675 E-score; CCGCCTAC: -0.125 E-score.
The sequence CGTTCGGA yielded a binding signal of -0.066 E-score.
With AACAATGT, the binding signal was determined as 0.268 E-score.
AGTCTGAT returned a binding signal of 0.0417 E-score.
Consider TACGAAAA, for which the binding signal was determined as 0.0466 E-score.
The figure for ACGAAACA is 0.162 E-score; for TAGACGAA it is -0.0468 E-score.
Consider CGGATCAC, for which the binding signal was -0.124 E-score.
ATGCTGCG gave a binding signal of -0.0967 E-score.
CGTGGAAA yielded a binding signal of -0.0677 E-score.
In the case of GAGAACAA, the binding signal was -0.0435 E-score.
The sequence ATCTCTTG registered a binding signal of 0.118 E-score.
As for GTTAAGGA, the binding signal was 0.0416 E-score.
AGCCGACA came in with a binding signal of -0.172 E-score.
Sequence ACCATATC returned a binding signal of 0.239 E-score.
CAGTCCCC displayed a binding signal of -0.312 E-score.
Take CAACAAGC: the binding signal was -0.0233 E-score.
Sequence CTGACGTC gave a binding signal of -0.208 E-score.
